Assay results reported in PubChem BioAssay AID588855 (National Center for Advancing Translational Sciences (NCATS), 2011).
The campaign covered roughly 410,000 compounds. About 5,000 (1.2%) were called active. Inconclusive results, whose numbers are uncertain, are shown with a selection of clear calls. Calls follow the shape of the dose curve; as a rule, active = well fitted inhibition curve with a large enough effect; inconclusive = small, poorly fitted or top-dose-only effect; inactive = no such curve, though single readings can be large or run the other way. Potencies of inconclusive entries are doubtful fits and often do not repeat.

Experiment: qHTS for Inhibitors of TGF-b; also: nearly all actives have a fitted effect of over 65% in size
Conditions: HepG2 CAGA-GFP TGF-b/SMAD3 reporter, GFP fluorescence, 18 h, TGF-beta stimulated, 500 pg/mL final; series mostly up to 46.1 µM
Summary of the method: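 GFP signal (ex488/em500-530) from TGF-beta-stimulated HEPG2 CAGA-GFP cells, 500 pg/mL final, 18 h at 37 degrees C in DMEM plus 1% FBS, normalized to unstimulated and DMSO-stimulated controls.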
Potency is read from the fitted curve at half-maximal effect; tags tell the direction and shape of the fitted curve.

| Compound | Potency |
| --- | --- |
| O=C(O)Cn1ncc2ccccc2c1=O | inconclusive: 25.1 µM [inhibitor, single point] |
| CCOc1ccc(-c2noc(CCC(=O)O)n2)cc1 | inactive |
| CNCCCOc1cc(C)cc(C)c1C | inactive |
| O=C(CSc1nc2c(oc3ccccc32)c(=O)n1-c1ccccc1)Nc1ccc(F)c(Cl)c1 | inconclusive: 0.224 µM [inhibitor, full curve, poor fit] |
| COCC(=O)N1CCC(Oc2ccc(C(=O)NCCc3ncccc3C)cc2)CC1 | inconclusive: 35.5 µM [inhibitor, single point] |
| Fc1ccc(N2CCN(c3ncnc4onc(-c5ccc(Cl)cc5)c34)CC2)cc1 | inconclusive: 7.08 µM [inhibitor, full curve, poor fit] |
| Cc1[nH]c2ccccc2c1C(=O)CSc1nc2cc(S(=O)(=O)N3CCCCC3)ccc2o1 | inactive |
| CCCN(CC(=O)Nc1ccccc1C)C(=O)c1ccc2[nH]c3c(c2c1)CC(C)CC3 (centres undefined) | inconclusive: 20 µM [inhibitor, single point] |
| CCCCC(CC)CNC(=O)CCCCCn1c(=O)[nH]c2ccsc2c1=O (centres undefined) | inconclusive: 12.6 µM [inhibitor, partial curve] |
| COc1ncccc1-c1cc2nc(NCCCN(C)C)n(C)c(=O)c2s1 | inconclusive: 6.31 µM [inhibitor, single point] |
| CC(C)c1ccc(NC(=O)c2ccc(=O)n(Cc3ccccc3)c2)cc1 | inconclusive: 14.1 µM [inhibitor, single point] |
| O=C(CN1C(=O)c2ccccc2S1(=O)=O)c1ccccc1 | inactive |
| COc1ccc(/C=C/C(=O)C2CC2)cc1Cn1nc(C)c([N+](=O)[O-])c1C | inactive |
| NC(CCc1ccccc1)c1csc(NC(=O)NCC2CCCCC2)n1 (centres undefined) | inconclusive: 35.5 µM [inhibitor, single point] |
| COc1cc(Nc2nc(-c3ccc(OC)c(OC)c3)nc3ccccc23)cc(OC)c1 | inconclusive: 20 µM [inhibitor, partial curve, poor fit] |
| O=C(Nc1ccc(S(=O)(=O)NCCc2ccccc2)cc1)c1ccncc1 | inactive |
| Cc1c(C(=O)OCCOC(C)C)[nH]c2c1C(=O)CC(c1ccco1)C2 (centres undefined) | inconclusive: 3.55 µM [inhibitor, partial curve] |
| Cc1ccc(OCC(=O)NNC(=S)NC(=O)c2cccs2)c(C)c1 | inactive |
| S=C(NCCc1ccccc1)N1CCC2CC1c1cc(-c3ccc4c(c3)OCO4)ccc12 (centres undefined) | inconclusive: 4.47 µM [inhibitor, partial curve] |
| CSc1nc(N2CCN(Cc3ccc4c(c3)OCO4)CC2)c2ccccc2n1 | inconclusive: 12.6 µM [inhibitor, partial curve] |
| COc1ccccc1Nc1c2c(nc3ccc(NC(=O)c4ccc(N(C)C)cc4)cc13)CCCC2 | inconclusive: 15.8 µM [inhibitor, single point] |
| Cc1ccc(-n2c(=O)c3oc4ccccc4c3n(Cc3cccc(F)c3)c2=O)cc1C | inconclusive: 11.2 µM [inhibitor, partial curve, poor fit] |

| Compound | Potency |
| --- | --- |
| CC(=NNC(=S)N1CC2CCC(CC2)C1)c1cnccn1 | active: 3.16 µM |
| NC(=O)c1ccc(-c2noc(-c3cccc(Cl)c3)n2)cc1 | inconclusive: 0.794 µM [inhibitor, partial curve, poor fit] |
| C=CCN(C(=O)CSC1=NC(=O)CN1C(C)=O)c1nc(C)c(-c2ccccc2)s1 | active: 12.6 µM |
| COc1ccc(CNc2ncc(-c3ccc(F)cc3)n2C)c2ccccc12 | inconclusive: 35.5 µM [inhibitor, single point] |
| Cc1cccc(OCCCC(=O)NNC(=O)c2ccccn2)c1 | inconclusive: 6.31 µM [inhibitor, partial curve, poor fit] |
| COc1ccc(-c2csc(NC(=O)c3c(C)noc3C)n2)cc1F | inconclusive: 5.01 µM [inhibitor, single point] |
| COc1ccc(NC(=O)CS(=O)(=O)c2cn(CC(=O)N3CCOCC3)c3ccccc23)cc1 | inactive |
| CCOc1ccc(/C=C/C(=O)Nc2ccc(N3CCOCC3)cc2)cc1 | inconclusive: 0.112 µM [inhibitor, full curve, poor fit] |
| CC(=O)n1cc(N(C(=O)CCl)c2ccc(C)cc2)c2ccccc21 | active: 5.62 µM |
| CN(C)c1ccc(CNC(=O)c2ccc3nc(Cc4ccccc4)oc3c2)cc1 | inconclusive: 11.2 µM [inhibitor, single point] |
| C=CCn1c2ccccc2c2nnc(SCN3C(=O)c4ccccc4C3=O)nc21 | inactive |
| COc1c(Cl)cc(C(=O)NN)cc1Cl | inconclusive: 12.6 µM [inhibitor, partial curve, poor fit] |
| N/C(=N\OC(=O)N1c2ccccc2Sc2ccccc21)c1ccc(Br)cc1 | inconclusive: 8.91 µM [inhibitor, partial curve, poor fit] |
| CCOC(=O)c1c(C)n(-c2ccc(C)cc2)c2ccc(OCC(O)CN3CCN(C)CC3)cc12 (centres undefined) | inconclusive: 28.2 µM [inhibitor, single point] |
| Cn1c(CCN2CCN(c3ccccn3)CC2)nc2cc(NS(=O)(=O)c3ccc(Cl)cc3)ccc21 | inconclusive: 22.4 µM [inhibitor, single point] |
| COc1cccc(NC(=S)N(Cc2ccco2)C(C)c2ccco2)c1 (centres undefined) | inconclusive: 5.01 µM [inhibitor, single point] |
| COc1ccc(-c2c(C)nn3c(-c4ccccc4)cc(-c4ccccc4)nc23)cc1 | inactive |
| COc1ccc(Sc2ccccc2CN(C)C)cc1OC | inactive |
| Cc1c(NC(=O)/C(C#N)=C/c2cccs2)c(=O)n(-c2ccccc2)n1C | inactive |
| Cc1cc(C)c2c(N)c(C(=O)NN3CC(=O)N(c4ccccc4F)CC3=O)sc2n1 | inconclusive: 6.31 µM [inhibitor, single point] |
| Cc1ccc2[nH]c(=O)c(CN(CCCN(C)C)C(=S)NCCc3ccccc3)cc2c1 | inconclusive: 35.5 µM [inhibitor, single point] |
| COc1cccc(C(=O)/C=C/c2ccc(OCC#N)c(OC)c2)c1 | inconclusive: 11.2 µM [inhibitor, partial curve, poor fit] |
